# PubChem BioAssay AID504332 (National Center for Advancing Translational Sciences (NCATS), 2011)
# “And” between values parts separate entries of the source, which are not always exact repeats. Identical values can stand only once. Screen size: about 350,000 compounds; about 31,000 (8.9%) were called active. This list was built around the results that the source calls inconclusive (neither active nor inactive); the mix of calls is not that of the screen. Calls come from the whole dose curve; as a rule, active = well fitted inhibition curve with a large enough effect; inconclusive = small, poorly fitted or top-dose-only effect; inactive = no such curve, though single readings can be large or run the other way. Potencies of inconclusive entries are doubtful fits and often do not repeat.
# Target: Histone-lysine N-methyltransferase EHMT2 (Homo sapiens) (UniProt Q96KQ7)
# Experiment: qHTS Assay for Inhibitors of Histone Lysine Methyltransferase G9a; note: nearly all actives have a fitted effect of over 75% in size
# Conditions: G9a H3K9 monomethylation, AlphaScreen, 2 h; activity, negative = inhibition: at 59 µM (top of the series) unless noted
# Summary of the method: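 Step 1: enzyme (final 20 nM) with compound, 15 min RT. Step 2: substrate peptide 500 nM and SAM 20 uM, 2 h RT. Step 3: anti-H3K9me1 antibody and AlphaScreen beads, 10 min, then plate read.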
# % is set by controls: 0 for no effect and ±100 for the full control effect; potency is the fitted concentration of half-maximal effect; tags give direction and shape of the fitted curve.
# Chain of UniProt Q96KQ7 (Q96KQ7 whole entry, looked up): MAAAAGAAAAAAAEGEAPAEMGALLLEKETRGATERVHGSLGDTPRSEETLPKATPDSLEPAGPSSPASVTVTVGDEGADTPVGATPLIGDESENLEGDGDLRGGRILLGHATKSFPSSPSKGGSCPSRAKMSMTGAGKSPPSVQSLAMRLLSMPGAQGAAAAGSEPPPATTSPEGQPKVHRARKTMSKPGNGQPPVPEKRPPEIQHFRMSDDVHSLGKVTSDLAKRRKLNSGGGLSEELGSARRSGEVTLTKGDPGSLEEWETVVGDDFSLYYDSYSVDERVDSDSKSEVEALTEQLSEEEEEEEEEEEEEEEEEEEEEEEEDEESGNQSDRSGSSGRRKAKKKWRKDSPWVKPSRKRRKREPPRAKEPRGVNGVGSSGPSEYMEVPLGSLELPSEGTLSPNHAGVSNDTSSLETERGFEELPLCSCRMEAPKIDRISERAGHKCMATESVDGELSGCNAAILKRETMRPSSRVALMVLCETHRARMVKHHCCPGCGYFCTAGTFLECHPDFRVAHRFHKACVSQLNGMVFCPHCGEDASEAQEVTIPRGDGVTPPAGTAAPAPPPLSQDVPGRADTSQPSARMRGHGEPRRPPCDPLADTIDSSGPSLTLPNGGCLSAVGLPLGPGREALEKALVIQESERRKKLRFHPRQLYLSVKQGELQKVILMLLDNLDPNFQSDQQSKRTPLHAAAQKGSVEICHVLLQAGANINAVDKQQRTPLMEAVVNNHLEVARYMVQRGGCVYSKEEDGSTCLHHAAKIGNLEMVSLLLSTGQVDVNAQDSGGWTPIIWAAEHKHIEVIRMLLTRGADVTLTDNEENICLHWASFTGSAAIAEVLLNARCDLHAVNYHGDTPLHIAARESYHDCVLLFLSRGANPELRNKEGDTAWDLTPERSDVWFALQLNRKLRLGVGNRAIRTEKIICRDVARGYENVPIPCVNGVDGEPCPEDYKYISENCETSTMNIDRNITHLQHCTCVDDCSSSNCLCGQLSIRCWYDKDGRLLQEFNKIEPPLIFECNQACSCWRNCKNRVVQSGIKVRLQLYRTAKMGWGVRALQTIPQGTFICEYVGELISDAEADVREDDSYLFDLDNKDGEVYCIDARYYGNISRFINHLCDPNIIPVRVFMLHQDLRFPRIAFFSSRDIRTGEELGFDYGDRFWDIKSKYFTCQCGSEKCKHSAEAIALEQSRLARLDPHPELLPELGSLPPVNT
Structure (SMILES),Potency,"activity, negative = inhibition"
COc1ccc(CNc2ccc(C)cc2)cc1Br,"inconclusive: 14.1 µM [inhibitor, partial curve, poor fit]",–
CC(C)CC(=O)Nc1ccc2nc(SCC(=O)N3CCOCC3)sc2c1,–,inactive: -36.9%
Cc1ccn2c(=O)nc(SCC(=O)Nc3cccc4ccccc34)nc2c1,–,inactive: -39.1% [at 102 µM]
COc1ccc(Nc2ncccc2C(=O)O)cc1,"inconclusive: 12.6 µM [inhibitor, partial curve, poor fit]",–
CC(C)(C)c1cc(/C=C(\C#N)C(N)=S)cc(C(C)(C)C)c1O,active: 28.2 µM,–
COc1cc(/C=C2\CCCc3c2nc2ccccc2c3C(=O)O)cc([N+](=O)[O-])c1O,active: 39.8 µM,–
CCOC(=O)C1CCCCN1Cc1cccc(OC)c1OC (stereo not given),active: 11.2 µM,–
Cc1ccc(CSC2=Nc3ccccc3C3=NC(=O)CN23)cc1,"inconclusive: 89.1 µM [inhibitor, single point]",–
O=C(CCCN1C(=O)c2cccc3cccc(c23)C1=O)N1CCN(Cc2ccc3c(c2)OCO3)CC1,"inconclusive: 14.1 µM [inhibitor, partial curve, poor fit]",–
CCCn1nc(NC(=O)C(C)C)c2cc3cc(OC)ccc3nc21,–,inactive: 7.96% [at 102 µM]
CCC(=O)Oc1c(Sc2ccc(C)cc2)c(C)nn1-c1ccccc1,active: 10 µM,–
Cc1cc(-c2ccccc2)nc2cc(C(N)=O)nn12,active: 28.2 µM,–
COC(=O)c1c(C(=O)OC)c2cccc3cc(-c4ccccc4)c4ccc1c4n32,"inconclusive: 2.82 µM [inhibitor, partial curve, poor fit]",–
CCOC(=O)c1cc(-c2ccc(F)cc2)n(CCC(=O)Nc2cc(OC)cc(OC)c2)c1C,"inconclusive: 28.2 µM [inhibitor, partial curve, poor fit]",–
CCOCCCNC(=O)C1CCN(Cc2ccc(OCc3ccccc3)c(OC)c2)CC1,active: 50.1 µM,–
Cc1nn(Cc2ccccc2)c2sc(C(=O)N3CCN(Cc4ccc5c(c4)OCO5)CC3)cc12,"inconclusive: 39.8 µM [inhibitor, single point]",–
O=C(CCc1ccccc1)Nc1cc(C(=O)O)cc(C(=O)O)c1,–,inactive: -10.1% [at 102 µM]
Cc1csc(=Nc2ccccc2)n1CCO,active: 28.2 µM,–
O=C(Cn1nc(C(F)F)cc1C(F)F)NNC(=S)Nc1ccc(Cl)cc1,"inconclusive: 10 µM [inhibitor, partial curve, poor fit]",–
Cn1c(=O)c2c(SCc3c(F)cccc3Cl)nc(CC(C)(C)C)nc2n(C)c1=O,–,inactive: -5.44%
O=C(CSc1nc2ncccc2o1)Nc1ccc(Cl)cc1F,–,inactive: 11.7%
COC(=O)c1c(-c2ccccc2)c[nH]c1C,"inconclusive: 50.1 µM [inhibitor, partial curve]",–
O=C(Cn1cc(SCc2ccc(Cl)cc2)c2ccccc21)N1CCOCC1,"inconclusive: 25.1 µM [inhibitor, single point] and inconclusive: 22.4 µM [inhibitor, partial curve, poor fit]",–
N#Cc1cc2c(nc1SCc1ccc(Cl)cc1)CCCC2,"inconclusive: 28.2 µM [inhibitor, single point]",–
Cc1nn(C(C)C(=O)NC2C(=O)N3C(C(=O)O)=C(CSc4nnnn4C)CSC23)cc1Cl (stereo not given),"inconclusive: 39.8 µM [inhibitor, partial curve, poor fit]",–

Structure (SMILES),Potency,"activity, negative = inhibition"
S=C(Nc1ccc(Oc2ccccc2)cc1)NC1CCCCCC1,active: 44.7 µM,–
CCOC(=O)c1ccc(N2CCN(c3ccccc3F)CC2)c(NC(=O)Nc2cccc(OC)c2)c1,–,inactive: -47.8%
S=C(Nc1ccc(Br)cc1Cl)Nn1cnnc1,"inconclusive: 7.94 µM [inhibitor, full curve, poor fit]",–
CC(Oc1ccccc1)C(=O)Nc1ccc(S(=O)(=O)Nc2nccs2)cc1 (stereo not given),"inconclusive: 79.4 µM [inhibitor, single point]",–
Cc1cc(C)n2nc(SCc3cccc(S(=O)(=O)N(C)C)c3)nc2n1,active: 44.7 µM,–
COc1ccc(NC(=O)c2cc(S(=O)(=O)N3CCCC(C)C3)cn2C)c(OC)c1 (stereo not given),–,inactive: 12.1%
COc1ccc(CCOC(=O)c2ccc(N)c([N+](=O)[O-])c2)cc1,"inconclusive: 79.4 µM [inhibitor, single point]",–
CC1=CC(c2ccccc2)n2nnnc2N1 (stereo not given),"inconclusive: 56.2 µM [inhibitor, single point]",–
COc1cc(CNCCC2CCOC(C)(C)C2)ccc1O (stereo not given),active: 50.1 µM,–
Cc1ccc(C(=O)c2c(NC(=O)c3ccccc3)sc(C)c2C)cc1,active: 8.91 µM,–
CNC1=C([N+](=O)[O-])CC([N+](=O)[O-])=C(N2CCNCC2)N1C,active: 44.7 µM,–
COC(=O)c1ccc(NC(=O)CCCN2C(=O)NC(C)(C)C2=O)cc1,–,inactive: -44.1% [at 102 µM]
O=C(c1ccccc1)N1CCCCC(S(=O)(=O)c2ccc3ccccc3c2)C1=O (stereo not given),"inconclusive: 79.4 µM [inhibitor, partial curve, poor fit]",–
O=C(CN1CCCCCC1)Nc1ccc(Br)cc1Br,–,inactive: 105% [at 102 µM]
COc1ccc(CN(Cc2ccco2)C(=O)COc2ccccc2Cl)cc1,–,inactive: -4.32%
COc1ccc(-c2cc(OC(=O)c3cccc(Cl)c3)c3c(C)oc(C)c3c(=O)c2)cc1OC,"inconclusive: 14.1 µM [inhibitor, partial curve]",–
CC(C)=CCOc1ccc2ccc(=O)oc2c1,–,inactive: 6.87% [at 12.7 µM]
CCC(C)NC(=O)c1ccc(CSc2nc3ccncc3n2Cc2ccc(F)cc2)cc1 (stereo not given),"inconclusive: 79.4 µM [inhibitor, single point]",–
CCOc1ccc(CN2CCN(Cc3ccc(C)o3)CC2CCO)cc1 (stereo not given),active: 70.8 µM,–
O=C(NCCCN1CCCC1)Nc1cccc2ccccc12,"inconclusive: 8.91 µM [inhibitor, partial curve, poor fit]",–
Cc1cc(C)c(S(=O)(=O)NCC2CCC(C(=O)NCCc3ccccc3)CC2)c(C)c1 (stereo not given),–,inactive: 0.329%
COc1cccc(CCNC(=O)CC2C(=O)NCCN2Cc2ccc(C)o2)c1 (stereo not given),"inconclusive: 79.4 µM [inhibitor, single point]",–
CCn1cnc2sc(C(=O)N3CCN(Cc4ccc5c(c4)OCO5)CC3)c(C)c2c1=O,"inconclusive: 79.4 µM [inhibitor, partial curve, poor fit]",–
Cc1ccnc(NS(=O)(=O)c2ccc(N3C(=O)Nc4ccccc4N3O)cc2)c1,"inconclusive: 89.1 µM [inhibitor, single point]",–
O=C1CCCC(O)=C1N=Nc1ccc(C(=O)O)cc1,active: 8.91 µM,–

Structure (SMILES),Potency,"activity, negative = inhibition"
CCN(CC)c1ccc(NC(=O)Cn2nc3c(cc2=O)CCCC3)c(C)c1,active: 11.2 µM,–
CC1CCCCN1C(=S)Nc1ccc2nc3n(c(=O)c2c1)CCCCC3 (stereo not given),"inconclusive: 15.8 µM [inhibitor, single point]",–
CCc1c(C)sc(NC(=O)c2cc3nc(-c4ccc(OC)cc4)cc(C(F)(F)F)n3n2)c1C(=O)OC,"inconclusive: 39.8 µM [inhibitor, single point]",–
Cc1cc(NC(=O)CCN2CCC(C)CC2)ccc1Br,–,inactive: -19.5% [at 102 µM]
N#Cc1nc(/C=C/c2ccc(F)cc2)oc1N1CCCCCC1,"inconclusive: 7.94 µM [inhibitor, partial curve]",–
COc1cccc(-c2nn[nH]n2)c1O,active: 3.55 µM,–
Cc1ccc(NC(=O)/C(C#N)=C(\N)C(Cl)(Cl)Cl)nc1,"inconclusive: 14.1 µM [inhibitor, partial curve, poor fit]",–
COCc1cc(=O)n2[nH]c(C)cc2n1,"inconclusive: 79.4 µM [inhibitor, partial curve, poor fit]",–
COc1ccccc1/C=C/CN1CCOCC1,"inconclusive: 28.2 µM [inhibitor, single point]",–
CCOc1ccccc1-c1cc(-c2n[nH]c(=S)n2CC)c2ccccc2n1,active: 10 µM,–
Oc1cccc(O)c1O,active: 3.55 µM,–
Cc1ccc(S(=O)(=O)/N=C2/C=C(Sc3ncn[nH]3)C(=O)c3ccccc32)cc1,active: 0.562 µM,–
CC(NS(=O)(=O)c1ccc2c(c1)CCN2C(=O)CCCC(=O)O)c1ccccc1 (stereo not given),–,inactive: -1.53%
O=C(O)C1CCC(N2C(=O)c3c(Cl)c(Cl)c(Cl)c(Cl)c3C2=O)CC1 (stereo not given),"inconclusive: 89.1 µM [inhibitor, single point]",–
CCS(=O)(=O)c1nc(S(=O)(=O)c2ccc(C)cc2)c(NCCN2CCOCC2)s1,"inconclusive: 25.1 µM [inhibitor, partial curve, poor fit]",–
Cc1nnc(NC(=O)c2ccc(S(=O)(=O)N3CCCCCC3)cc2)o1,"inconclusive: 0.316 µM [inhibitor, partial curve, poor fit]",–
CCOC(=O)CSC1=NC(=O)/C(=C/c2ccc(OC)cc2)S1,active: 7.08 µM,–
O=C(CN1C(=O)NC2(CCCCC2)C1=O)Nc1nc2c(F)cc(F)cc2s1,active: 50.1 µM,–
Cc1cc2nnc(SC3CCOC3=O)n2c2ccccc12 (stereo not given),active: 10 µM,–
CCCc1cc(=O)[nH]c(Nc2cc(Cl)cc(Cl)c2)n1,–,inactive: -7.67%
CCOC(=O)c1c(CN2CCN(C)CC2)oc2ccc(OC)cc12,–,inconclusive: -81.3% [inhibitor]
O=C(Nc1ccc(S(=O)(=O)Nc2ncccn2)cc1)c1nn(Cc2ccccc2)c(=O)c2ccccc12,–,inconclusive: -84.3% [inhibitor]
CC(C)CNC(=S)N(CCCO)Cc1cc2cc3c(cc2[nH]c1=O)OCO3,active: 39.8 µM,–
Cn1ccc2cc(S(=O)(=O)N3CCCC(C(=O)NCc4ccccc4F)C3)ccc21 (stereo not given),–,inactive: 8.59%
Cc1ccccc1-c1nc(CNC(=O)NC2CCCCC2)c(C)o1,–,inactive: 4.58%
